Assay results reported in the supplement of paper PMC3334620.
In all, about 33,000 sequences were measured (“E-score (-0.5 to 0.5)”: median about -0.016, highest 2% from about 0.32 on). The list shows a part of the results.

These sequences were tested against T1, Stp1 (UniProt B3LFK1) (assay: PBM E-score (8-mer binding enrichment) (E-score (-0.5 to 0.5)); higher = stronger / more preferred TF binding; most listed sequences are background and not binding sites). Conditions: protein concentration: 200 nM; construct: GST-full length.
T1 sequence: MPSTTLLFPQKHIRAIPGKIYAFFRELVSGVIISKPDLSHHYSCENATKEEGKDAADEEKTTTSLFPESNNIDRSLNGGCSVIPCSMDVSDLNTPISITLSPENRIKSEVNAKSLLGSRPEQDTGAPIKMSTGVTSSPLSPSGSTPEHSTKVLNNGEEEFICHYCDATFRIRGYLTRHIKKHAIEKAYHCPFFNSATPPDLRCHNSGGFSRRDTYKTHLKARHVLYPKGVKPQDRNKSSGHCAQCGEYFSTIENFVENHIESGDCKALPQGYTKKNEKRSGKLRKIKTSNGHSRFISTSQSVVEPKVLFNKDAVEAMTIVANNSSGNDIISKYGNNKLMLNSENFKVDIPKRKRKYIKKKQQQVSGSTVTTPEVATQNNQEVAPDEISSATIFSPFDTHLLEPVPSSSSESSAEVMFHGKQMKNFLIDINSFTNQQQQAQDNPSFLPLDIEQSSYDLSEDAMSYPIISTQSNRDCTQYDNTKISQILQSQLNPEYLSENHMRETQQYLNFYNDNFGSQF
Outline: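 E-scores (a modified Wilcoxon-Mann-Whitney statistic) were assigned by the Universal PBM Analysis Suite to every ungapped eight-base word pooled with its reverse complement. The input came from universal all-10-mer Agilent arrays made double-stranded by primer extension and probed with GST-tagged yeast transcription factors at about 100-200 nM. Fluorescent anti-GST detected bound protein, and masliner normalised the scans.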

Sequence	PBM E-score
CTAAATTC	-0.0171
TCCGCACA	0.188
ATAAAAAA	0.206
CGTGGCGA	0.219
CACTCCTA	-0.104
GGGTACTA	0.0651
AACGTTAG	0.0532
GTTCGGCA	0.226
CGATCCAG	0.0325
CTTCTAAA	0.168
TAGACTGA	-0.112
ATCAGTTA	0.21
CTTTTCTA	-0.169
ACGATGAT	-0.188
AGGTGGAT	-0.18
TAATGGAA	0.118
CGAATCAC	-0.026
AAGACCCC	-0.252
AAAATACC	0.179
ACGCTGAG	0.0067
ACTCACCA	-0.21
CTAAGAGC	-0.0921
AACCTCGA	-0.0117
AGAAGTGC	-0.069
AATCAACC	-0.292

Sequence	PBM E-score
AGCAAGCT	-0.296
ATTTGAGA	-0.00713
GTGTTCTA	0.156
ACGGCGTA	0.448
AAGGAACC	0.111
AAAAGTAT	0.0476
GTTATGTA	-0.0678
AGCACCCT	-0.256
CCTGTCAA	0.0137
ACTCAGGC	-0.121
AGCGCCAG	0.0101
CTGAATGC	-0.0658
ATCCATTG	0.0495
GGCATGGA	0.169
CGGGAGAC	-0.242
GCTCGGGA	-0.174
AACATATC	0.142
ATCCCGTG	0.186
AGGAGCTG	-0.222
AAGGGCGA	-0.108
CACACTCC	-0.217
ACAGGGCG	0.351
TCCAGGGA	-0.197
CCATGCCA	0.148
CAAGGTCA	-0.171

Sequence	PBM E-score
ATTCTCGC	-0.133
AGTGAAAG	0.0498
AAGTAATC	0.164
ATGTGTGA	-0.132
ATCTTTCC	-0.119
GATACGTA	-0.0548
CCCGTTTC	0.0615
ATCTTGGC	-0.209
GAACAGTC	-0.201
AGAAAGAG	-0.217
AGGTGCCC	-0.0256
CAGGATAG	0.111
ATGAACAT	0.105
CAAACTAG	-0.107
CATTACCC	-0.171
CGTGATAG	0.0581
CGGTTACA	0.0722
CTAAACTA	-0.0468
CATCGCCC	-0.0878
CCAGACAC	-0.209
CTCGGTCC	-0.164
CGCCCAAG	-0.172
TCGAATAA	0.0883
CACTCTCG	-0.0668
AGGTAACG	-0.213

Sequence	PBM E-score
AAGGGCGT	0.0591
CATTTTCG	0.0976
ATTTTAAG	0.19
ACAGGCTA	-0.135
TGATTAAA	0.145
ACCGAGAT	-0.0374
GCTAGACA	-0.0112
CCTGCGAG	-0.0538
GGATAGAA	0.226
CTCCTGAA	0.0691
AACCGAAG	-0.0463
AGACGTAA	-0.0891
AAGATACC	-0.0422
CGGCTGTA	0.193
GCCCTGCA	0.0324
GGGCCTAA	-0.212
CGAGTTCA	-0.0977
AAGGATAC	-0.0924
CCACGATA	0.034
CCTTTACA	0.0991
ACTTCGCC	0.173
ATGTCGTC	-0.282
AAGGGTTC	-0.128
ACTTATTG	-0.00914
ATTATGTG	0.134

Sequence	PBM E-score
ACGACCGG	-0.263
AAACTGAA	0.0305
AACAGCCA	0.124
CTCTAATA	0.145
ACCTCGTG	0.00694
GCACTGTA	0.0576
CTACATCA	-0.0897
AGGTGATG	-0.25
GAAAGGAA	0.0927
TAGTATCA	0.284
CCATGGAA	-0.0518
GTGTGGAA	0.032
CTCTGTTA	-0.0478
ATTGGAAC	0.115
AATGACCT	-0.256
AGTTACGC	-0.0536
GCCACGAC	-0.0685
TAACTGTA	0.0377
AGTAGAGG	-0.288
ATAGACGG	0.175
AGCGAGAG	-0.0779
CTGACCAG	-0.136
GAAACATC	-0.184
GAATGCCC	0.13
ATGTGGAG	0.0244

Sequence	PBM E-score
CCAGATTC	-0.253
CACGCCCG	-0.0702
TCGCAGCA	0.0185
AAAGATAT	0.133
ACCTAATC	0.0444
CATAAGGC	0.344
GGAAGCAA	-0.0555
GACACGGC	0.479
ATCATTTA	0.13
ATTGCGCG	0.32
AGGTGCTG	-0.106
AAAATTAG	0.0472
AACGAGAC	-0.0773
CATACAAA	0.222
CACTCGGG	-0.174
CCCCAGCG	-0.103
TACCCCAA	-0.0592
AAACCCTG	-0.0886
CTCACGTA	-0.134
ACATACAA	0.148
GACCTGCA	-0.235
AAGTTTAA	0.0956
CGAACGTC	-0.0853
AAAGGGTT	-0.177
AATACAGT	0.0336

Sequence	PBM E-score
CTCCCAAG	-0.204
GTCCTTCA	-0.228
ATGCCTGA	-0.108
ATTAGCCC	-0.0336
GTGATACA	0.0512
TCGCATAA	0.00879
CATCCGTC	-0.055
CGACAATA	0.197
AGATTGCC	0.0901
CAAATCCA	0.0898
CGCCACCG	0.045
AGTGTGAG	-0.0833
CTGTACGA	0.00025
AAACTCTC	0.0198
CGAACCCA	-0.133
CATGGTTA	0.105
AAGGACTT	-0.285
AGCCTCAT	0.0519
ATCTCATC	-0.0678
AGAGCGGA	0.026
AATCACCT	0.0461
AAGGGTCT	-0.255
CTTGGATA	0.0427
ACCAGTAG	0.0159
ATTGGCGA	0.041

Sequence	PBM E-score
GTTTAGGA	-0.255
ACCCTCTC	-0.32
CACCATCG	-0.146
GACTGTAC	-0.105
CTCGCAAA	-0.169
GTCCCTAA	-0.0973
GCACAAAA	0.293
ACAATGCC	0.2
ATAAAGGG	0.0416
GCCTTGCA	0.33
AGCATCTC	-0.18
CCTCTAAA	-0.143
AGGACGTC	-0.054
AGCAGAGC	-0.0431
CCTGATCA	-0.219
CGTCATCC	-0.11
AAAGGATC	-0.00085
AACGATAA	-0.184
CATTACGA	0.0209
ATAACCCG	-0.281
CCGATTCG	0.205
ACGGTCAA	0.0586
CCTGGGAA	-0.108
ACGGACTG	-0.0189
CGCCTGCA	-0.0325

Sequence	PBM E-score
CGAACTAA	0.0581
AAAGTTAC	0.0425
AGGGGCAT	-0.094
CGGACCAC	-0.00311
CATTTGTA	0.159
AGACTGAG	-0.0241
GGTATTAA	0.139
CGACCATA	-0.108
ATACGTCG	-0.127
AGCCCGCT	-0.285
TACAAATA	0.125
AAAGACAT	-0.0383
GCGATAAC	0.0294
CATGTGAG	-0.141
GGAAATCC	-0.0189
GACGACGA	-0.0515
AAAAACCA	0.165
CAGTTAAA	0.107
AGCCCTCG	-0.217
TTCTTAAA	-0.125
AACAGATG	-0.0496
CAGAAGGA	-0.116
GCGCGACC	0.122
GTCCATGA	-0.243
AACCTAAG	-0.0196

Sequence	PBM E-score
CCGTATGC	0.331
CGCGAGAA	-0.128
CAGGAAAA	0.136
CACTGTCA	-0.0262
CTCGCCTA	0.102
AACTAGGG	-0.198
ACAAAAAA	0.207
CCCGCAAA	0.108
AAACAAAA	0.108
TACCTAGA	-0.22
CAGAAGCC	0.0659
TATCGCAA	-0.0107
GAGTGAAC	-0.0633
CGCCGCGC	0.487
AGGGACGG	0.0564
AATGTGTA	0.0587
GGAGACAC	-0.163
CACTATAC	0.0177
ATCGTAAT	0.0988
AGCTAATG	-0.215
CCATTCAA	0.172
CGAGACAA	-0.0952
ATACCTGC	-0.186
CGCTACAC	0.14
AGCTCACG	-0.006

Sequence	PBM E-score
ACAAAGCA	0.24
ACTTAACA	-0.064
ATGACGTA	-0.0285
ATGGTTGC	-0.177
CAAGAACG	0.119
GATGTGCA	-0.192
ATGTTTTC	0.128
ATCAAATA	0.0256
ATTCTAGG	-0.0039
CTACAGAC	-0.142
AGGAACAG	-0.346
GCAGCGAA	0.0703
CCTTGTTC	-0.0796
CACCCAGA	-0.257
ATAGTGAC	-0.0557
CATTGGCG	-0.071
ACCCAGCA	-0.115
ATCATCTA	-0.00058
ATCCTAAT	0.0266
GCCGACGC	0.0701
CAAAGATC	0.0716
AATGTCAG	-0.192
ACTCTCTA	-0.161
CGGAGTGA	-0.0778
AGCCAGCG	-0.229

Sequence	PBM E-score
ACTCTCCT	-0.328
CCTAGGCC	-0.159
AGATTCAG	-0.135
CAAAGGGG	-0.262
AGTTTACC	-0.00036
ACAGCATA	0.178
CAGATGAA	-0.0963
AACAGCCG	0.255
GACGACAC	-0.042
ACCGGCAA	-0.0651
GCAGCGCA	-0.103
CTTTATCA	-0.0472
ATACAAGG	0.173
CAAACAAG	0.097
GCATCTCA	0.0289
ATGCATCA	0.245
AAACGCCC	0.231
CACAACTC	0.227
CAACAAAA	0.207
TTACATAA	0.203
CACCCTTC	-0.295
TCCGCGGA	0.0517
ACATTGAG	-0.13
GACTTAGA	-0.136
CTCCGGAG	-0.298

Sequence	PBM E-score
ACGGTCAG	-0.174
ACTCTATG	0.0521
CCCGTAAC	-0.112
TGAGGCAA	0.234
AGGAAACG	0.0878
ACTCGATC	-0.0856
CACTTGCA	0.0242
CAAGGCGA	0.194
GGTGAGAA	0.0154
ACTGTGAA	0.0195
CTAAGTGA	0.0875
ATGCTATC	-0.218
TCCAGAAA	0.0873
CAGTTACG	-0.0502
AGCAGAGG	-0.123
ACGTTCTC	0.0143
CTCCCGCC	-0.205
GAATTGTC	-0.0787
CGACCCAA	0.12
ATCTGAGG	-0.00874
AGAGTAGG	-0.0524
ACTCTTGC	-0.151
ATACCCGA	-0.0195
GGGGAACA	-0.252
CGCTTCAC	0.111

Sequence	PBM E-score
AGCAGTAA	-0.0832
GCATACGC	0.0331
ATGATAGG	-0.0334
AGTCAAAT	-0.0508
AGGGTCCA	-0.182
GCGCGCCA	0.268
ACATCTAA	0.0295
CCTCGCAA	-0.0772
AACCCTCG	-0.13
TTATTCAA	0.186
AGGGGCGA	-0.198
CAGAGCGA	-0.0979
GTGGTTTA	-0.0575
CAGTGGTA	-0.0313
CCCCGAAC	-0.144
ACAGGGGC	-0.199
AGTAGAAG	-0.0635
AAGACAGT	-0.179
CCCGTACC	0.191
